Measured values as given in US20160368957A1 (COVAGEN, published 2016).

Experiments:
recombinant human IL-17A [1] = biological target: T1, recombinant human IL-17A (human, UniProt Q16552 20-155, limits assumed, biotinylated with NHS-PEO4-biotin in the phage ELISA and in the SA-chip BIAcore runs; unmodified elsewhere); test: cell-based or functional assay
recombinant human IL-17A [2] = biological target: T1, recombinant human IL-17A; test: SPR BIAcore 3000, biotinylated IL-17A on SA chip, binder injected
T1 sequence (Q16552 20-155 limits assumed): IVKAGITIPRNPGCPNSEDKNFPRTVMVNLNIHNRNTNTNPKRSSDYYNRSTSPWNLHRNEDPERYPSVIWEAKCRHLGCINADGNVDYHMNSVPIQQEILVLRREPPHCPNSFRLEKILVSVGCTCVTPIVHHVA

IC50 of inhibition of IL-17A induced IL-6 production in NHDF cells (IL-17A 50 ng/ml) (recombinant human IL-17A [1]): ~6 nM
Kd (recombinant human IL-17A [2]): 31 nM
B1: clone E4 (designed binder)
chain: GVTLFVALYDYKAFWPGDISFHKGEKFQILRTSDGEWWVARSLTTGEEGYIPSNYVAPVDSIQ
notes: Fyn SH3-derived
